This is an account of results in PubChem BioAssay AID1508623 (National Center for Advancing Translational Sciences (NCATS), 2021).

Molecules are shown by their SMILES. Hit rate of the full screen: of about 48,000 compounds, about 450 (0.94%) were called active. Another 19% or so got no clear call; they are omitted. Calls follow the shape of the dose curve; as a rule, active = well fitted inhibition curve with a large enough effect; inconclusive = small, poorly fitted or top-dose-only effect; inactive = no such curve, though single readings can be large or run the other way. Some of the results follow.

The assay is described as follows: Primary qHTS for Identification of Small Molecule Inhibitors of Huntingtin Promoter Activity. Also: nearly all actives have a fitted effect of over 50% in size. The following applies: HEK293 HTT promoter firefly luciferase reporter (activity 0% = vehicle and -100% = no light), 24 h; series mostly up to 57.5 µM; activity change, negative = inhibition: at the top concentration. Summed up: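 HEK293 Fluc reporter, 2,500 cells/well, 24 h pre-culture; cpds up to 57.5 uM final, 24 h 37 degrees C; Dual-Glo, 10 min RT; normalized vehicle = 0%, zero RLU = -100%.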
A general note: Quantitative high-throughput screening tests each substance at several concentrations.
`Cc1ccc(-n2c(=O)c3c(cnn3C)n(CC(=O)Nc3ccccc3C)c2=O)cc1`: the “activity change, negative = inhibition” value was inactive: -1.92%.

For the compound `Cc1ccc(CNC(=O)CCCn2c(=O)[nH]c3ccc(Br)cc3c2=O)cc1`, the “activity change, negative = inhibition” value is inactive: 8.36%.

With `Cc1cccc(Cn2cc(S(=O)(=O)c3cccc(C)c3)c(=O)c3cc(F)c(N4CCOCC4)cc32)c1`, the “activity change, negative = inhibition” value was inactive: -18.9%.

Take `CCCCn1c(=NC(=O)c2cc3ccccc3o2)c(C(=O)OCC)cc2c(=O)n3ccccc3nc21`: the “activity change, negative = inhibition” value is inactive: -9.19%.

On to `COc1ccc(Cn2ccnc2SCC(=O)NCc2ccco2)cc1`, for which the “activity change, negative = inhibition” value was inactive: -16.7%.

In the case of `COc1ccc(-c2onc(C)c2C)cc1S(=O)(=O)NCC1CCN(Cc2cc(C)ccc2C)CC1`, the “activity change, negative = inhibition” value is inactive: -30.8%.

With `CCN(CC)CCNC(=O)Cn1nc(C)c2c(C)n(-c3ccccc3)nc2c1=O`, the “activity change, negative = inhibition” value was inactive: -12.1%.

In the case of `CCn1c(=O)c2cc(C(=O)NCCCN3CCC(C)CC3)sc2c2ccccc21`, the “activity change, negative = inhibition” value is inactive: 38.3%.

In the case of `COC(=O)c1ccccc1NC(=O)c1ccc2nc(CCc3ccccc3)oc2c1`, the “activity change, negative = inhibition” value was inactive: 5.49%.

On to `COc1cccc(-c2noc(COc3ccccc3Cl)n2)c1`, for which the “activity change, negative = inhibition” value was inactive: 50.3%.

For `Cc1ccc(Cl)cc1NC(=O)CSc1nc2ccccc2nc1Cc1ccccc1`, the “activity change, negative = inhibition” value is inactive: -2.16%.

On to `CCOC(=O)c1cn(CC(=O)Nc2ccc(OC)cc2OC)nn1`, for which the “activity change, negative = inhibition” value is inactive: -13.6%.

On to `CCOc1ccc(CCNC(=O)c2ccc3c(c2)N(Cc2ccc(C)cc2)CCS3)cc1`, for which the “activity change, negative = inhibition” value is inactive: -29.7%.

Consider `O=C(C1CCCN(S(=O)(=O)c2ccc(Br)s2)C1)N1CCN(c2ccccc2F)CC1` (centres undefined), for which the “activity change, negative = inhibition” value was inactive: -23.6%.

With `CCN(CC)CCCNc1sc(S(=O)(=O)c2ccccc2)nc1S(=O)(=O)c1ccc(Cl)cc1`, the “activity change, negative = inhibition” value was inactive: -3.88%.

`CCOC(=O)c1c(C)[nH]c(CCC(=O)NC(C)c2ccccc2)c1C` (centres undefined): the “activity change, negative = inhibition” value was inactive: -10.5%.

As to `CCN(C(=O)c1sc2nc3n(c(=O)c2c1C)CCCCC3)c1ccc(OC)cc1`, the “activity change, negative = inhibition” value was inactive: -6.16%.

As to `Cc1ccc(Cl)cc1NC(=O)Cn1c(=O)n(CCC(=O)NCc2ccc3c(c2)OCO3)c(=O)c2sccc21`, the “activity change, negative = inhibition” value was inactive: -9.79%.

On to `COC(=O)C(NC(=O)CCc1c(C)nc2c(-c3ccccc3)c(C)nn2c1C)C(C)C` (centres undefined), for which the “activity change, negative = inhibition” value is inactive: -19.3%.

For the compound `CCCC(=O)Nc1nnc(S(=O)(=O)N2CCCCCC2)s1`, the “activity change, negative = inhibition” value was inactive: -8.88%.

Regarding `O=C(CCN1CCN(C(=O)OCc2cc(Cl)cc(Cl)c2)CC1)c1ccc2[nH]c(=O)oc2c1`, the “activity change, negative = inhibition” value is inactive: 3.26%.

For the compound `COc1ccc(C2C(C(=O)Nc3ccccc3)=C(C)Nc3nc(SCC(=O)c4ccc(C)cc4)nn32)cc1` (centres undefined), the “activity change, negative = inhibition” value was inactive: 2.17%.

With `CC1=C(c2ccc(F)cc2)S(=O)(=O)N=C1N1CCC(C(=O)NCCc2ccccc2C)CC1`, the “activity change, negative = inhibition” value was inactive: -14.7%.

Take `Cc1c(C(=O)Nc2ccc(-n3c(C)nc4ccccc4c3=O)cc2)cccc1[N+](=O)[O-]`: the “activity change, negative = inhibition” value is inactive: -22.2%.

With `CCOc1cc2c(cc1OCC)C(CC(=O)O)N(C(=O)Nc1ccccc1C(F)(F)F)CC2` (centres undefined), the “activity change, negative = inhibition” value was inactive: -18%.

Regarding `Cc1cc(C)nc(-n2nc(C)c3c2NC(=O)CC3c2cccc(O)c2)n1` (centres undefined), the “activity change, negative = inhibition” value is inactive: -4.13%.

Consider `Cc1cc2nn(-c3ccc(F)cc3)nc2cc1NC(=O)c1cccc2c(Cl)cccc12`, for which the “activity change, negative = inhibition” value is inactive: -12%.

Take `CCOC(=O)c1ccc2c(c1)N(Cc1ccc(F)cc1Cl)C(=O)c1ccccc1S2(=O)=O`: the “activity change, negative = inhibition” value is inactive: -11.1%.

As for `CCn1c(C)c(C)c2cc(C(=O)NCc3ccc(F)cc3)ccc21`, the “activity change, negative = inhibition” value was inactive: -6.88%.

As to `COc1ccc(-n2cc(-c3ccccc3)c3c(Nc4ccc(OC)c(OC)c4)ncnc32)cc1`, the “activity change, negative = inhibition” value is inactive: -27.4%.

As for `Cc1noc(-c2ccc(NC(C)c3ccccc3)c([N+](=O)[O-])c2)n1` (centres undefined), the “activity change, negative = inhibition” value was inactive: -16.7%.

Consider `CCC(=O)N1CCc2cc(Br)cc(S(=O)(=O)N3CCN(c4ccccc4OC)CC3)c21`, for which the “activity change, negative = inhibition” value is inactive: 0.68%.

As for `COc1ccc(-c2oc3c(CC=C(C)C)c(O)cc(O)c3c(=O)c2O)cc1`, the “activity change, negative = inhibition” value was inactive: 21.9%.

`Cc1ccc(CNC(=O)c2ccc(CSCc3cccc(C)c3)o2)cc1`: the “activity change, negative = inhibition” value was inactive: -12.6%.

On to `Cc1cc(C)cc(-n2c(SCC(=O)N3CCOCC3)nc3c([nH]c4ccccc43)c2=O)c1`, for which the “activity change, negative = inhibition” value is inactive: -16.4%.

Regarding `Cc1ccc(CCNS(=O)(=O)c2c(C)nc3sc(C)c(C)n3c2=O)cc1`, the “activity change, negative = inhibition” value is inactive: -1.8%.

Regarding `COc1cccc(-c2nnc(-c3ccccc3NC(=O)c3ccc(F)cc3F)o2)c1`, the “activity change, negative = inhibition” value was inactive: 2.17%.

`CC1CCN(S(=O)(=O)c2ccc3c(c2)N(CC(=O)NCCc2ccccc2)C(=O)CO3)CC1`: the “activity change, negative = inhibition” value is inactive: 0.831%.

Turning to `COc1cccc(NC(=O)c2ccc3c(c2)CCN3S(C)(=O)=O)c1`, the “activity change, negative = inhibition” value is inactive: 45.3%.

As for `Cc1nc2nc(NCc3ccc(Cl)cc3)[nH]n2c(=O)c1Cc1ccccc1`, the “activity change, negative = inhibition” value was inactive: -10.2%.

For the compound `CCCn1c(CCC(=O)Nc2ccc(OCC)cc2)nc2cccnc21`, the “activity change, negative = inhibition” value was inactive: -20.2%.

As to `CCN(CC)CCCCNc1ncc2c(n1)N(C)C(=O)N(c1c(Cl)c(OC)cc(OC)c1Cl)C2`, the “activity change, negative = inhibition” value is inactive: -13.7%.

Regarding `CCOC(=O)c1c(C)oc2nc(C)nc(NCc3ccc(F)cc3)c12`, the “activity change, negative = inhibition” value is inactive: 6.77%.

In the case of `COc1ccc(C(=O)Nc2nnc(SCc3cc(=O)c4cc(C)cc(C)c4[nH]3)s2)cc1`, the “activity change, negative = inhibition” value was inactive: 7.75%.

Take `Cc1ccc(CNC(=O)CCCn2c(=O)c3ccccc3n(CC(=O)Nc3ccc(C)c(C)c3)c2=O)cc1`: the “activity change, negative = inhibition” value was inactive: -0.302%.

Take `CCOc1ccc(CCNC(=O)CCCn2c(=O)c3cccn3c3ccccc32)cc1`: the “activity change, negative = inhibition” value is inactive: -19.9%.

For the compound `COC(=O)NCC(c1cccnc1)N1CCN(c2ccc(F)cc2)CC1` (centres undefined), the “activity change, negative = inhibition” value is inactive: -15%.

As to `Cc1ccc(-n2ncc3c(NCCC4=CCCCC4)ncnc32)cc1`, the “activity change, negative = inhibition” value is inactive: -15.9%.

Regarding `Cc1ccc(Cl)cc1NC(=O)C(C)n1nc(-c2ccccc2)ccc1=O` (centres undefined), the “activity change, negative = inhibition” value is inactive: -19.8%.
